Measurements taken from PMC4336329 (PLoS ONE, 2015).
Among all 310,000 compounds or so, about 14,000 (4.5%) showed an effect of 50% or more. Effects have a minus sign here. This is one part of the list.

Each compound was assayed against human ether-à-go-go-related gene (hERG) potassium channel (human, UniProt Q12809) (assay: primary screen, population patch clamp on CHO cells stably expressing hERG).
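Also: peak tail current of the secondary pulse compared with the same well before compound.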

Sequence of human ether-à-go-go-related gene (hERG) potassium channel (Q12809 whole entry, looked up): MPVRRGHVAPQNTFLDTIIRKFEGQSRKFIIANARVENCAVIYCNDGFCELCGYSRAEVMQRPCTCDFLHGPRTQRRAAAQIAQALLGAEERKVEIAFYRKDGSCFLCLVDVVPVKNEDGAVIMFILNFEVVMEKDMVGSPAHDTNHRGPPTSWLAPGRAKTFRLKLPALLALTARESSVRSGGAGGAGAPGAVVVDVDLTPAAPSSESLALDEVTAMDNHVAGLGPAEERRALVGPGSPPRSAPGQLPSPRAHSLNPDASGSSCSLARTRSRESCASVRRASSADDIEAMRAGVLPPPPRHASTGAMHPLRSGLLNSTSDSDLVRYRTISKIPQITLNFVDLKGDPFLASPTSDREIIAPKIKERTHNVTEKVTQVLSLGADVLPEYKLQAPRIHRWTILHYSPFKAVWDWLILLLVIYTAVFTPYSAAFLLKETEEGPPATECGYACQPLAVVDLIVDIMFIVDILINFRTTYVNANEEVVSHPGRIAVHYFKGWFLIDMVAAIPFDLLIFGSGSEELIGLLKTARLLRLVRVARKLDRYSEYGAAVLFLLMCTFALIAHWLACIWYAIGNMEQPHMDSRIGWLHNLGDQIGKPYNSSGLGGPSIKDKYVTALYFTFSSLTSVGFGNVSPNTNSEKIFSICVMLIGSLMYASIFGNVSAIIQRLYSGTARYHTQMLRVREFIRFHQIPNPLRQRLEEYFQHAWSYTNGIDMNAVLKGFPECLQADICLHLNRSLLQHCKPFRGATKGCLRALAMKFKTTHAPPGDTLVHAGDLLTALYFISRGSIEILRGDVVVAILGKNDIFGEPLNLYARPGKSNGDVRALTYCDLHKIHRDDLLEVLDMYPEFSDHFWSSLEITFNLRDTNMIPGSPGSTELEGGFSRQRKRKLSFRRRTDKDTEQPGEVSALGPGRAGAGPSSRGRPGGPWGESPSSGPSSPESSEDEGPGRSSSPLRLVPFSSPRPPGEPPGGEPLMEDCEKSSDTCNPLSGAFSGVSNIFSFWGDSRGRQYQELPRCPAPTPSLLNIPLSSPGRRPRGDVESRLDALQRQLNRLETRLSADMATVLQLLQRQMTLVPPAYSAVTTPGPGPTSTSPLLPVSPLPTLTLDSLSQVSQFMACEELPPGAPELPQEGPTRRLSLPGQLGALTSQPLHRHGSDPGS

SMILES	hERG current change (%, negative = inhibition) at 10uM [%]
CCOC(=O)c1nnn(-c2nonc2N)c1CSc1nnc(N)s1	-6.58
CC1CCCCN1CC(=O)Nc1sc2c(c1C#N)CCC2 (centres unmarked)	2.38
NC(=O)c1ccsc1NC(=O)CS(=O)(=O)c1ccc(F)cc1	-68.2
Cc1ccccc1NC(=O)c1ccc(S(=O)(=O)N(C)C)cc1	-12.6
COc1ccc(Cl)cc1NS(=O)(=O)c1cccc(C(=O)NCCCN2CCCC2=O)c1	3.09
CCOC(=O)CCN(c1ccccc1)S(=O)(=O)c1ccc(-c2ccc(=O)[nH]n2)s1	-29.3
CN(C)CCCNC(=S)N(CCCN(C)C)Cc1cc2cc3c(cc2[nH]c1=O)OCO3	10.4
CCCN(C(=O)c1ccccc1Cc1ccccc1)C1CCS(=O)(=O)C1 (centres unmarked)	-0.454
CC(C)CCSc1ncnc2c1oc1nc3c(cc12)COC(C)(C)C3	-1.75
COc1ccc(S(=O)(=O)NCCc2c(C)nn(C)c2Oc2ccccc2)cc1	-12.5
C/C=N/NC(=O)CCNC(=O)c1ccccc1	14.3
CCOC(=O)Cc1c(C)nc2c(-c3ccccc3)c[nH]n2c1=O	2.48
Cn1c(SCC(=O)N/N=C/C=C\c2ccccc2[N+](=O)[O-])nc2ccccc21	10.4
CC(C)n1nc(C(=O)Oc2cccc(Cl)c2Cl)c2ccccc2c1=O	-11.3
Cn1ccc(C(=O)NC(=S)Nc2ccc([N+](=O)[O-])cc2O)n1	8.42
Cc1nnc(SCC(=O)NC2CCCCC2)n1C1CCCCC1	5.34
Cc1[nH]c2ccc(C(=O)NC3CCC(C)CC3)cc2c1C (centres unmarked)	4.27
Nc1cccnc1S(=O)(=O)c1cccc(C(F)(F)F)c1	5.59
CCOc1ccccc1-n1c(SCC(=O)Nc2ccccc2C(=O)O)nc2ccccc2c1=O	8.39
Cc1ccc(S(=O)(=O)NC2=NCN(Cc3cccnc3)CN2)cc1	20.3
Cc1ccc[n+](-c2[nH]c(=O)sc2/C=N/N=C(\[O-])c2cccnc2)c1	7
CCOC(=O)c1cc(C#N)c(N2CCOCC2)nc1-c1ccccc1	-32.7
CCOc1ncccc1C(=O)OCc1nnc(-c2ccccc2)o1	-27.6

SMILES	hERG current change (%, negative = inhibition) at 10uM [%]
COC(=O)c1ccc(NC(=O)CCS(=O)(=O)c2ccc(C)cc2)cc1	8.44
CC(C)Sc1nc2c(c(=O)n(C)c(=O)n2C)n1C	16.1
CCNc1nc(NCC)n2c(SCC(=O)Nc3ccccc3Cl)nnc2n1	11
O=C(CN1C(=O)c2ccccc2S1(=O)=O)NCCSCc1c(F)cccc1Cl	-29.7
CCc1ccc2oc(C(=O)NCc3ccncc3)c(C)c2c1	-20.3
CC1CCCN(S(=O)(=O)c2ccc(NC(=O)c3cccc(-n4cnnn4)c3)cc2)C1 (centres unmarked)	-40.2
Cc1[nH]n(-c2ccc([N+](=O)[O-])cc2)c(=O)c1C=NCCN1CCN(C(=O)c2ccccc2F)CC1	-71.2
Cc1cccc(C)c1OCC(=O)N=Nc1c(O)[nH]c2ccc(Br)cc12	-5.96
Cc1ccc(NS(=O)(=O)c2cccc(C(=O)O)c2)cc1S(=O)(=O)N1CCOCC1	-8.81
CCOC(=O)C1=C(Nc2ccc(OC)cc2)OCC1=O	16.5
O=C(Cc1cccs1)NC1(C(=O)NC2CCCC2)CCCCC1	-3.91
COc1ccc(-c2c(C(C)=O)c(C)nc3sc4c(=O)n(-c5ccc(C)cc5)nnc4c23)cc1	5.77
Cc1ccc2c(c1)N(CC(=O)OCC(=O)NCc1ccccc1)C(=O)CO2	-4.08
CC(C)(C)c1ccc(C(=O)Nc2ccccc2Cl)cc1	31.2
CS(=O)(=O)N1CCN(C(=O)c2c(F)cccc2F)CC1	0.936
CN(C)CCn1c2c(c(SCC(=O)NCc3ccccc3)nc1=O)CCC2	-14.9
Cc1nc2cc(NC(=O)N3c4ccccc4CC3C)ccc2n1C (centres unmarked)	-8.73
O=C(Nc1ccccc1)Nc1scc2c1c(=O)oc1ccccc12	2.68
N/C(=N\OC(=O)c1ccc(OCC(F)(F)F)nc1)c1ccc(Cl)cc1	19.5
CN(C)S(=O)(=O)NCC1CCCN(Cc2cc3ccccc3s2)C1 (centres unmarked)	-6.37
COc1ccccc1CNC(=O)CCC(=O)Nc1nnc(C(C)C)s1	3.13
Cc1nc(-c2ccccc2)sc1-c1nc(-c2ccccc2)ncc1S(=O)(=O)c1ccccc1	6.59
CC1CCN(C(=O)/C(=C/c2ccccc2Cl)c2ccccc2)CC1	-11.8

SMILES	hERG current change (%, negative = inhibition) at 10uM [%]
COc1ccc(C)cc1NC(=O)CCN1CCN(c2ccccc2F)CC1.Cl	-19.9
Cc1c(Cc2ccc3c(c2)OCO3)sc(NC(=O)c2ccc3ccccc3c2)c1C(N)=O	-4.06
COc1ccc(C(=O)NC(=S)Nc2ccc3c4c(cccc24)CC3)cc1OC	22.3
CCn1ncc(-c2ccnc3cc(C(=O)O)nn23)c1C	12.6
Cc1[nH]c2ccc(-c3n[nH]c(=S)n3-c3ccccc3)cc2c1C	-3.58
Cc1cc(Cl)ccc1NC(=S)N(CCCN1CCOCC1)Cc1cccs1	-32.2
CCC(=O)Oc1ccc(-c2cnc3ccccc3n2)cc1	13.5
CCN(CC)C(=O)c1c(-c2ccccc2)oc2ccc(O)cc12	9.39
O=C1C2C3C=CC([C@@H]2C(=O)N1C1CCCCC1)[C@H]1C(=O)N(C2CCCCC2)C(=O)C31 (some centres unmarked)	0.712
Cc1cc(NC(=O)Cn2nc(-c3ccccc3F)ccc2=O)ccc1-n1cnnn1	-8.95
Cc1ccc(C(=O)NC(C)(COc2nonc2C)COc2nonc2C)cc1	-40
CCC(c1nnnn1CCOC)N1CCN(Cc2ccccc2)CC1.Cl (centres unmarked)	-2.59
COc1cc(S(=O)(=O)NCC2CCCO2)ccc1Br (centres unmarked)	-15.8
N#CCCCSc1nnc(Cc2ccc3c(c2)OCO3)o1	6.99
CCCCOc1ccc(C(=O)NCCc2ccccc2)cc1	5.09
CN(C)CCCN(C(=O)c1ccc(S(=O)(=O)N2CCCCCC2)cc1)c1nc2ccc(F)cc2s1.Cl	-73.1
Cc1nc(SCC(=O)Nc2nc3ccccc3s2)n[nH]1	9.48
CC1CC(CN)CC(CO)C1 (centres unmarked)	17.6
COc1ccc(N2C(=S)NC3c4cc(Cl)ccc4OC2(C)C3C(=O)N(C)C)cc1 (centres unmarked)	24.6
CCC(=O)N1CCN(c2ccc(Cl)cc2NC(=O)Cc2ccc(Cl)cc2)CC1	-54.5
O=C(O)COc1ccc2c3c(c(=O)oc2c1)CCC3	5.59
CCOC(=O)CSc1nc(C)c2ccccc2n1	0.921
CCOc1ccc(/C=C2\SC(=S)N(CCC(=O)N(CCO)c3ccccc3)C2=O)cc1	17

SMILES	hERG current change (%, negative = inhibition) at 10uM [%]
O=C(CSCc1ccc(Br)cc1)N=Nc1c(O)[nH]c2ccccc12	11.8
CC1CC(C)CN(S(=O)(=O)c2ccc(C(=O)NCc3ccc4c(c3)OCO4)cc2)C1 (centres unmarked)	10.1
Cc1cc(Br)ccc1NC(=O)CN(C)C(=O)CN1C(=O)NC(C)(C2CC2)C1=O (centres unmarked)	14.6
Cc1ccccc1N=C(N)Nc1ccccc1C	4.87
CCCOC(=O)CSc1nc(N)c(C#N)c(-c2ccco2)c1C#N	2.95
CCOC(=O)N1CCN(CC(=O)c2c(C)[nH]c3ccccc23)CC1	-2.94
Cc1c(C(=O)N(Cc2nnc(-c3ccccc3Cl)o2)C2CC2)oc2ccccc12	-12.6
Cc1cccc(CN2CCC(C(=O)Nc3cccc(-c4cccc(F)c4)c3)CC2)n1	-74
Cc1ccc(NC(=O)N2CCN(S(=O)(=O)c3ccccc3)CC2)cc1	10.2
COc1ccccc1N/C(N)=N/c1nc(C(F)(F)F)cc(=O)[nH]1	13
Nc1ccc(O)c2c1C(=O)c1ccccc1C2=O	14.4
CCCc1cc(=O)oc2cc(OCC(=O)NCCc3ccc(S(N)(=O)=O)cc3)ccc12	-3.31
CC(C)(C)n1c(=O)[nH]c2c(c1=O)CCC2	13.8
CN(Cc1ccccc1)Cc1c[nH]c2ccccc12	-16.5
C=CCn1c(=O)c2c(nc3n2CCS3)n(C)c1=O	6.63
COCCN(C(=O)CSc1nnc(-c2ccccc2OC)o1)c1c(N)n(CC(C)C)c(=O)[nH]c1=O	6.73
CCCCSc1nc(C)cc(SCC(=O)N/N=C/c2ccccc2)n1	-2.55
COc1cccc(C(C(=O)NC2CCCC2)N(C(=O)c2ccco2)c2ccccc2F)c1OC (centres unmarked)	-0.0716
COc1ccc(C(=O)C[n+]2ccc(C)cc2)cc1.[Br-]	17.8
CC1(c2nnc(-c3ccc(F)cc3)o2)CC(c2ccc([N+](=O)[O-])cc2)=NO1 (centres unmarked)	-39.7
